# Laboratory results as given in the supplement of paper PMC8728848.
# This is one part of the list.
# B1: RBMC1 (Vibrio cholerae) (protein)
# chain: QQSQRVVTADNLMYLRSGFAIDAIGTTVNNLVGGPVQGTNGGVLRAPIALDQLQSVEVTSGLYNWGGYHIVAIKFTMKDGSSVLLGSTHYASNKKVETYTVPQGKRIKQINVWTGGWLVEGFQFVY
# Legend:
# Assay in all cases: glycan array binding signal (z-score within array); higher = stronger binding
# Conditions in all cases: glycan notation: IUPAC condensed, linker removed
# [1] = biological target: Man(a1-2)Man(a1-3)[Man(a1-2)Man(a1-6)]Man(a1-6)[Man(a1-2)Man(a1-2)Man(a1-3)]Man
# Procedure, shortened: (§1)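 Glycan array data were curated from 3228 arrays in the Consortium for Functional Glycomics database and kept only where the protein sequence was available. Glycan names were converted to IUPAC-condensed notation, and columns mapping to the same glycan were averaged. The binding signal is a within-array Z-score, averaged across arrays of the same protein sequence at different concentrations or buffers and across linkers. Negative Z-scores can be read as non-binding.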
# [2] = biological target: Man(a1-2)Man(a1-3)[Man(a1-2)Man(a1-6)]Man(a1-6)[Man(a1-2)Man(a1-2)Man(a1-3)]Man(b1-4)GlcNAc(b1-4)GlcNAc
# Procedure, shortened: as §1
# [3] = biological target: Man(a1-2)Man(a1-3)[Man(a1-6)]Man(a1-6)[Man(a1-2)Man(a1-3)]Man(b1-4)GlcNAc(b1-4)GlcNAc
# Procedure, shortened: as §1
# [4] = biological target: Man(a1-2)Man(a1-6)[Man(a1-3)]Man(a1-6)[Man(a1-2)Man(a1-2)Man(a1-3)]Man
# Procedure, shortened: as §1
# [5] = biological target: Man(a1-2)Man(a1-6)[Man(a1-3)]Man(a1-6)[Man(a1-2)Man(a1-2)Man(a1-3)]Man(b1-4)GlcNAc(b1-4)GlcNAc
# Procedure, shortened: as §1
# Man(a1-3)[Man(a1-6)]Man = biological target: Man(a1-3)[Man(a1-6)]Man
# Procedure, shortened: as §1
# [6] = biological target: Man(a1-3)[Man(a1-6)]Man(a1-6)[Man(a1-2)Man(a1-3)]Man(b1-4)GlcNAc(b1-4)GlcNAc
# Procedure, shortened: as §1
# [7] = biological target: Man(a1-3)[Man(a1-6)]Man(a1-6)[Man(a1-3)]Man
# Procedure, shortened: as §1
# [8] = biological target: Man(a1-3)[Man(a1-6)]Man(a1-6)[Man(a1-3)]Man(b1-4)GlcNAc(b1-4)GlcNAc
# Procedure, shortened: as §1
# [9] = biological target: Man(a1-3)[Man(a1-6)]Man(b1-4)GlcNAc(b1-4)GlcNAc
# Procedure, shortened: as §1
# [10] = biological target: Man(a1-3)[Man(a1-6)]Man(b1-4)GlcNAc(b1-4)[Fuc(a1-6)]GlcNAc
# Procedure, shortened: as §1
# Man(a1-6)Man = biological target: Man(a1-6)Man
# Procedure, shortened: as §1
# Man(b1-4)GlcNAc = biological target: Man(b1-4)GlcNAc
# Procedure, shortened: as §1
# MurNAc(b1-4)GlcNAc = biological target: MurNAc(b1-4)GlcNAc
# Procedure, shortened: as §1
# Neu5Ac(a2-3)Gal = biological target: Neu5Ac(a2-3)Gal
# Procedure, shortened: as §1
# [11] = biological target: Neu5Ac(a2-3)Gal(b1-3)GalNAc
# Procedure, shortened: as §1
# [12] = biological target: Neu5Ac(a2-3)Gal(b1-3)GalNAc(b1-3)Gal(a1-4)Gal(b1-4)Glc
# Procedure, shortened: as §1
# [13] = biological target: Neu5Ac(a2-3)Gal(b1-3)GalNAc(b1-4)Gal(b1-4)Glc
# Procedure, shortened: as §1
# [14] = biological target: Neu5Ac(a2-3)Gal(b1-3)GalNAc(b1-4)[Neu5Ac(a2-3)]Gal(b1-4)Glc
# Procedure, shortened: as §1
# [15] = biological target: Neu5Ac(a2-3)Gal(b1-3)GalNAc(b1-4)[Neu5Ac(a2-8)Neu5Ac(a2-3)]Gal(b1-4)Glc
# Procedure, shortened: as §1
# [16] = biological target: Neu5Ac(a2-3)Gal(b1-3)GalNAc6S
# Procedure, shortened: as §1
# [17] = biological target: Neu5Ac(a2-3)Gal(b1-3)GlcNAc
# Procedure, shortened: as §1
# [18] = biological target: Neu5Ac(a2-3)Gal(b1-3)GlcNAc(b1-2)Man
# Procedure, shortened: as §1
# [19] = biological target: Neu5Ac(a2-3)Gal(b1-3)GlcNAc(b1-2)Man(a1-3)[GlcNAc(b1-4)][Neu5Ac(a2-3)Gal(b1-3)GlcNAc(b1-2)Man(a1-6)]Man(b1-4)GlcNAc(b1-4)GlcNAc
# Procedure, shortened: as §1
# [20] = biological target: Neu5Ac(a2-3)Gal(b1-3)GlcNAc(b1-2)Man(a1-3)[Neu5Ac(a2-3)Gal(b1-3)GlcNAc(b1-2)Man(a1-6)]Man(b1-4)GlcNAc(b1-4)GlcNAc
# Procedure, shortened: as §1
# [21] = biological target: Neu5Ac(a2-3)Gal(b1-3)GlcNAc(b1-2)[Neu5Ac(a2-3)Gal(b1-3)GlcNAc(b1-4)]Man(a1-6)[Neu5Ac(a2-3)Gal(b1-3)GlcNAc(b1-2)Man(a1-3)]Man(b1-4)GlcNAc(b1-4)GlcNAc
# Procedure, shortened: as §1
# [22] = biological target: Neu5Ac(a2-3)Gal(b1-3)GlcNAc(b1-3)Gal(b1-3)GlcNAc
# Procedure, shortened: as §1
# [23] = biological target: Neu5Ac(a2-3)Gal(b1-3)GlcNAc(b1-3)Gal(b1-4)GlcNAc
# Procedure, shortened: as §1
# [24] = biological target: Neu5Ac(a2-3)Gal(b1-3)GlcNAc(b1-3)GalNAc
# Procedure, shortened: as §1
# [25] = biological target: Neu5Ac(a2-3)Gal(b1-3)GlcNAc(b1-6)GalNAc
# Procedure, shortened: as §1
# [26] = biological target: Neu5Ac(a2-3)Gal(b1-3)GlcNAc6S
# Procedure, shortened: as §1
# [27] = biological target: Neu5Ac(a2-3)Gal(b1-3)[Fuc(a1-4)]GlcNAc
# Procedure, shortened: as §1
# [28] = biological target: Neu5Ac(a2-3)Gal(b1-3)[Fuc(a1-4)]GlcNAc(b1-3)Gal(b1-3)[Fuc(a1-4)]GlcNAc
# Procedure, shortened: as §1
# [29] = biological target: Neu5Ac(a2-3)Gal(b1-3)[Fuc(a1-4)]GlcNAc(b1-3)Gal(b1-4)[Fuc(a1-3)]GlcNAc
# Procedure, shortened: as §1
# [30] = biological target: Neu5Ac(a2-3)Gal(b1-3)[GlcNAc(b1-6)]GalNAc
# Procedure, shortened: as §1
# [31] = biological target: Neu5Ac(a2-3)Gal(b1-3)[Neu5Ac(a2-6)]GalNAc
# Procedure, shortened: as §1
# [32] = biological target: Neu5Ac(a2-3)Gal(b1-3)[Neu5Ac(a2-6)]GlcNAc(b1-3)[Fuc(a1-3)[Gal(b1-4)]GlcNAc(b1-6)]Gal(b1-4)Glc
# Procedure, shortened: as §1
# [33] = biological target: Neu5Ac(a2-3)Gal(b1-3)]Neu5Ac(a2-3)Gal(b1-4)]GlcNAc
# Procedure, shortened: as §1
# Neu5Ac(a2-3)Gal(b1-4)Glc = biological target: Neu5Ac(a2-3)Gal(b1-4)Glc
# Procedure, shortened: as §1
# [34] = biological target: Neu5Ac(a2-3)Gal(b1-4)GlcNAc
# Procedure, shortened: as §1
# [35] = biological target: Neu5Ac(a2-3)Gal(b1-4)GlcNAc(b1-2)Man
# Procedure, shortened: as §1
# [36] = biological target: Neu5Ac(a2-3)Gal(b1-4)GlcNAc(b1-2)Man(a1-3)[GlcNAc(b1-4)][Neu5Ac(a2-3)Gal(b1-4)GlcNAc(b1-2)Man(a1-6)]Man(b1-4)GlcNAc(b1-4)GlcNAc
# Procedure, shortened: as §1
# [37] = biological target: Neu5Ac(a2-3)Gal(b1-4)GlcNAc(b1-2)Man(a1-3)[Neu5Ac(a2-3)Gal(b1-4)GlcNAc(b1-2)Man(a1-6)]Man(b1-4)GlcNAc(b1-4)GlcNAc
# Procedure, shortened: as §1
# [38] = biological target: Neu5Ac(a2-3)Gal(b1-4)GlcNAc(b1-2)Man(a1-3)[Neu5Ac(a2-3)Gal(b1-4)GlcNAc(b1-2)Man(a1-6)]Man(b1-4)GlcNAc(b1-4)[Fuc(a1-6)]GlcNAc
# Procedure, shortened: as §1
# [39] = biological target: Neu5Ac(a2-3)Gal(b1-4)GlcNAc(b1-2)Man(a1-3)[Neu5Ac(a2-6)Gal(b1-4)GlcNAc(b1-2)Man(a1-6)]Man(b1-4)GlcNAc(b1-4)GlcNAc
# Procedure, shortened: as §1
binder,measurement,setting,value
B1,glycan array binding signal (z-score),[1],-0.329
same,glycan array binding signal (z-score),[2],-0.335
same,glycan array binding signal (z-score),[3],-0.383
same,glycan array binding signal (z-score),[4],-0.325
same,glycan array binding signal (z-score),[5],-0.308
same,glycan array binding signal (z-score),Man(a1-3)[Man(a1-6)]Man,0.002
same,glycan array binding signal (z-score),[6],0.166
same,glycan array binding signal (z-score),[7],-0.027
same,glycan array binding signal (z-score),[8],-0.037
same,glycan array binding signal (z-score),[9],1.13
same,glycan array binding signal (z-score),[10],0.327
same,glycan array binding signal (z-score),Man(a1-6)Man,1.1
same,glycan array binding signal (z-score),Man(b1-4)GlcNAc,-0.259
same,glycan array binding signal (z-score),MurNAc(b1-4)GlcNAc,-0.416
same,glycan array binding signal (z-score),Neu5Ac(a2-3)Gal,-0.404
same,glycan array binding signal (z-score),[11],-0.226
same,glycan array binding signal (z-score),[12],-0.296
same,glycan array binding signal (z-score),[13],-0.295
same,glycan array binding signal (z-score),[14],-0.079
same,glycan array binding signal (z-score),[15],-0.235
same,glycan array binding signal (z-score),[16],-0.271
same,glycan array binding signal (z-score),[17],-0.272
same,glycan array binding signal (z-score),[18],-0.105
same,glycan array binding signal (z-score),[19],-0.414
same,glycan array binding signal (z-score),[20],0.369
same,glycan array binding signal (z-score),[21],-0.307
same,glycan array binding signal (z-score),[22],-0.32
same,glycan array binding signal (z-score),[23],-0.375
same,glycan array binding signal (z-score),[24],-0.314
same,glycan array binding signal (z-score),[25],-0.213
same,glycan array binding signal (z-score),[26],-0.097
same,glycan array binding signal (z-score),[27],-0.283
same,glycan array binding signal (z-score),[28],-0.219
same,glycan array binding signal (z-score),[29],0.07
same,glycan array binding signal (z-score),[30],-0.295
same,glycan array binding signal (z-score),[31],-0.336
same,glycan array binding signal (z-score),[32],-0.359
same,glycan array binding signal (z-score),[33],-0.105
same,glycan array binding signal (z-score),Neu5Ac(a2-3)Gal(b1-4)Glc,0.516
same,glycan array binding signal (z-score),[34],-0.305
same,glycan array binding signal (z-score),[35],-0.164
same,glycan array binding signal (z-score),[36],-0.14
same,glycan array binding signal (z-score),[37],1.51
same,glycan array binding signal (z-score),[38],3.39
same,glycan array binding signal (z-score),[39],-0.198
